We go through 13 molecules from the antibiotic and cytotoxicity screens of Wong et al. (2023).

Experiment [1] has as its system HSkMC (human skeletal muscle cells). In words: cytotoxicity call (relative viability < 0.9). The conditions noted are these: 10 µM.
In experiment [2] the test system is HepG2. In words: cytotoxicity call (relative viability < 0.9). The note with it: 10 µM.
Experiment [3] relates to S. aureus RN4220. In words: growth inhibition call (relative growth <= 0.2). The note with it: 50 µM.

This is one part of the list.

Turning to `COc1ccc(S(=O)(=O)N[C@H]2CC[C@@H](CC(=O)N3CCC(Cc4ccccc4)CC3)O[C@H]2CO)cc1`, the cytotoxicity call in experiment [1] and in experiment [2] was “inactive” in each case. Also, the growth inhibition call in experiment [3] was “inactive”.
As to `C[C@@H]1CN([C@@H](C)CO)C(=O)Cc2cc(NS(C)(=O)=O)ccc2O[C@H]1CN(C)C(=O)Nc1ccccc1`, the cytotoxicity call in experiment [1] and in experiment [2] was “inactive” in each case. Besides, the growth inhibition call in experiment [3] was “inactive”.
With `C[C@@H]1CN([C@@H](C)CO)C(=O)c2cc(NC(=O)Nc3ccc(C(F)(F)F)cc3)ccc2O[C@@H]1CN(C)Cc1ccc(Cl)c(Cl)c1`, the cytotoxicity call in experiment [1] and in experiment [2] was “active” in each case. Besides, in experiment [3], the growth inhibition call is “inactive”.
For `O=C1/C(=C/c2cn(-c3ccccc3)nc2-c2ccc(OCc3ccccc3F)cc2)SC(=S)N1CCS(=O)(=O)O`, the cytotoxicity call in experiment [1] and in experiment [2] was “inactive” each time. In experiment [3], the growth inhibition call was “inactive”.
As to `COc1ccc(NC(=O)N(C)C[C@H]2Oc3ccc(NC(=O)CCCN(C)C)cc3C(=O)N([C@@H](C)CO)C[C@@H]2C)cc1`, the cytotoxicity call in experiment [1] and in experiment [2] was “inactive” each time. Further, the growth inhibition call in experiment [3] is “inactive”.
As to `COc1cccc(S(=O)(=O)N(C)C[C@@H]2Oc3ncc(C#CCC(C)C)cc3C(=O)N([C@H](C)CO)C[C@@H]2C)c1`, the cytotoxicity call in experiment [1] and in experiment [2] was “inactive” each time. Besides, the growth inhibition call in experiment [3] is “inactive”.
Consider `C[C@H](CO)N1C[C@H](C)[C@H](CN(C)Cc2ccc(Oc3ccccc3)cc2)Oc2c(NC(=O)c3nc4ccccc4s3)cccc2C1=O`, for which the cytotoxicity call in experiment [1] and in experiment [2] was “inactive” each time. In addition, in experiment [3], the growth inhibition call is “inactive”.
Turning to `COc1ccc(S(=O)(=O)N2C[C@@H](O)COC[C@H]3O[C@H](CC(=O)NCCN4CCCCC4)CC[C@@H]32)cc1`, the cytotoxicity call in experiment [1] and in experiment [2] was “inactive” each time. The growth inhibition call in experiment [3] is “inactive”.
Regarding `C[C@@H]1CCCCO[C@@H](CN(C)C(=O)Nc2cccc3ccccc23)[C@@H](C)CN([C@H](C)CO)C(=O)c2cc(NC(=O)Nc3ccc4c(c3)OCO4)ccc2O1`, the cytotoxicity call in experiment [1] and in experiment [2] was “inactive” in each case. Besides, in experiment [3], the growth inhibition call is “inactive”.
For `C[C@H]1CN([C@@H](C)CO)C(=O)c2cccc(NS(=O)(=O)c3cccs3)c2O[C@@H]1CN(C)S(=O)(=O)c1ccccc1`, the cytotoxicity call in experiment [1] and in experiment [2] was “inactive” each time. In experiment [3], the growth inhibition call is “inactive”.
As for `C[C@@H]1CN([C@@H](C)CO)S(=O)(=O)c2ccc(C3=CCCC3)cc2O[C@H]1CN(C)S(=O)(=O)c1ccc(F)cc1`, the cytotoxicity call in experiment [1] and in experiment [2] was “inactive” throughout. Further, the growth inhibition call in experiment [3] is “inactive”.
With `C[C@@H]1CCCCO[C@H](CN(C)Cc2ccc(C(=O)Nc3ccccc3N)cc2)[C@@H](C)CN([C@H](C)CO)C(=O)c2cc(NS(=O)(=O)c3ccccc3)ccc2O1`, the cytotoxicity call in experiment [1] and in experiment [2] was “inactive” throughout. Moreover, the growth inhibition call in experiment [3] was “inactive”.
On to `O=C(Nc1cc(C(=O)Nc2ccc(S(=O)(=O)O)c(S(=O)(=O)O)c2)cc(C(=O)Nc2ccc(S(=O)(=O)O)c(S(=O)(=O)O)c2)c1)Nc1cc(C(=O)Nc2ccc(S(=O)(=O)O)c(S(=O)(=O)O)c2)cc(C(=O)Nc2ccc(S(=O)(=O)O)c(S(=O)(=O)O)c2)c1`, for which the cytotoxicity call in experiment [1] and in experiment [2] was “inactive” each time. Also, the growth inhibition call in experiment [3] is “inactive”.
